Reference: US20260055169A1 (PARAGON THERAPEUTICS, published 2026)

B1: Fc-VHH 1-3 fusion (SEQ ID NO: 37) (Fc fusion)
chain: [letters of human IgG1 Fc left out]GGGSQVQLVESGGGLVQPGGSLRLSCAASGFTFGQFGMSWVRQAPAKGPERVSAISSSGSGTIYADSVKGRFTISRDNAKNTLYLQMNSLKPEDTAVYYCTIGSSTTPSGPGQGTQVTVSS
B2: VHH 10 - G4S - wild-type IgG1 Fc fusion (VHH-Fc fusion, SEQ ID NO: 151) (Fc fusion)
chain: EVQLVESGGGLVQPGGSLRLSCAASGFTFGSFGMSWVRQAPGKGPEWVSAIDSGGADTRYAESVKGRFTISRDNAKKTLYLQMNSLKPEDTAVYYCTIGRSASRGSQGTQVTVSSGGGGS[letters of human IgG1 Fc left out]
B3: VHH 6-Fc fusion (SEQ ID NO: 147) (Fc fusion)
chain: QVQLVESGGGLVQPGGSLRLSCAASGFTFGSFGMSWVRQAPGKGPEWVSAIDSGGADTRYAESVKGRFTISRDNAKKTLYLQMNSLKPEDTAVYYCTIGQSTSRGSQGTQVTVSSGGGGS[letters of human IgG1 Fc left out]
notes: Llama VHH-G4S-wild-type IgG1 Fc
B4: VHH 2-Fc fusion (SEQ ID NO: 143) (Fc fusion)
chain: QVQLVESGGGLVQPGGSLRLSCAASGFTFGRFGMSWVRQAPGKGPEWVSAIDSGGADTRYAESVKGRFTISRDNAKKTLYLQMNSLKPEDTAVYYCTIGRSTSRGSQGTQVTVSSGGGGS[letters of human IgG1 Fc left out]
notes: as for B3
B5: VHH 3-Fc fusion (SEQ ID NO: 144) (Fc fusion)
chain: EVQLVESGGGLVQPGGSLRLSCAASGFTFGSFGMSWVRQAPGKGPEWVSAIDSGGADTRYAESVKGRFTISRDNAKKTLYLQMNSLKPEDTAVYYCTIGQSTSRGSQGTQVTVSSGGGGS[letters of human IgG1 Fc left out]
notes: as for B3
B6: VHH 5-Fc fusion (SEQ ID NO: 146) (Fc fusion)
chain: EVQLVESGGGLVQPGGSLRLSCAASGFTFGSFGMSWVRQAPGKGPEWVSAIDSGGTDTRYAESIKGRFTISRDNAKKTLYLQMNSLKPEDTAVYYCTIGQSTSRGSQGTQVTVSSGGGGS[letters of human IgG1 Fc left out]
notes: as for B3
B7: VHH 7-Fc fusion (SEQ ID NO: 148) (Fc fusion)
chain: EVQLVESGGGLVQSGGSLRLSCAASGFTFGSFGMSWVRQAPGKGPEWVSAIDGGGADTRYAESVKGRFTISRDNAKKTLYLQMNSLKPEDTAVYYCTIGQSTSRGSQGTQVTVSSGGGGS[letters of human IgG1 Fc left out]
notes: as for B3
B8: VHH 10-Fc fusion (SEQ ID NO: 151) (Fc fusion)
chain: EVQLVESGGGLVQPGGSLRLSCAASGFTFGSFGMSWVRQAPGKGPEWVSAIDSGGADTRYAESVKGRFTISRDNAKKTLYLQMNSLKPEDTAVYYCTIGRSASRGSQGTQVTVSSGGGGS[letters of human IgG1 Fc left out]
B9: VHH 11-Fc fusion (SEQ ID NO: 152) (Fc fusion)
chain: QVQLVESGGGLVQPGGSLRLSCAASGFTFGSFGMSWVRQAPGKGPEWVSAIDSGGADTRYAETVKGRFTISRDNLKKTLYLQMNSLKPEDTAVYYCTIGRSTSRGSQGTQVTVSSGGGGS[letters of human IgG1 Fc left out]
notes: as for B3
B10: VHH 13-Fc fusion (SEQ ID NO: 154) (Fc fusion)
chain: EVQLVESGGGLVQAGGSLRLSCAASGFTFGSFGMSWVRQVPGKGPEWVSAIDSGGTDTRYAESIKGRFIISRDNAKKTLYLQMNSLKPEDTAVYYCTIGQSTSRGSQGTQVTVSSGGGGS[letters of human IgG1 Fc left out]
notes: as for B3
B11: VHH 14-Fc fusion (SEQ ID NO: 155) (Fc fusion)
chain: QVQLVESGGGLVQPGGSLRLSCAASGFTFGSFGMSWVRQAPGKGPEWVSAIDSGGGDTRYAESVKGRFTISRDNAKKTLYLQMNSLKPEDTAVYYCTIGRSTSRVGQGTQVTVSSGGGGS[letters of human IgG1 Fc left out]
notes: as for B3
B12: VHH 15-Fc fusion (SEQ ID NO: 156) (Fc fusion)
chain: QVQLQESGGGLVQPGGSLTLSCAASGFTFGSFGMSWVRQAPGKGPEWVSAIDSSGADTRYADSVKGRFTISRDNAKKTLYLQMNSLKPEDTAVYYCTIGRSTSRGSQGTQVTVSSGGGGS[letters of human IgG1 Fc left out]
notes: as for B3
B13: VHH 16-Fc fusion (SEQ ID NO: 157) (Fc fusion)
chain: EVQLVESGGGLVQPGGSLRLSCAASGFTFGSFGMSWVRQAPGKGPEWVSAIDSGGADTRYAESVKGRFTISRDNAKKTLYLQMNNLKPEDTAMYYCTIGRSTSRGSQGTQVTVSSGGGGS[letters of human IgG1 Fc left out]
notes: as for B3
B14: VHH 17-Fc fusion (SEQ ID NO: 158) (Fc fusion)
chain: QVQLQESGGGLVQPGDSLRLSCAASGFTFGSFGMSWVRQAPGREPEWVSAIDSGGADTRYAESVKGRFTISRDNAKKTLYLQMNTLKPEDTAVYYCTIGRSTSRGSQGTQVTVSSGGGGS[letters of human IgG1 Fc left out]
notes: as for B3
B15: VHH 18-Fc fusion (SEQ ID NO: 159) (Fc fusion)
chain: QVQLVESGGGLVQPGGSLRLSCAASGFTFGSFGMSWVRQAPGKGPEWVSAIDSGGTDTRYAESIKGRFTISRDNAKKTLYLQMNSLKPEDTAVYYCTIGQSTSRGSQGTQVTVSSGGGGS[letters of human IgG1 Fc left out]
notes: as for B3
B16: VHH 19-Fc fusion (SEQ ID NO: 160) (Fc fusion)
chain: QVQLVESGGGLVQPGGSLRLSCAASGFTFGSFGMSWVRQAPGKGPEWVSAIDSGGGVTLYAESVKGRFTISRDNAKKTLYLQMNSLKSEDTAVYYCTIGQSTSRGSQGTQVTVSSGGGGS[letters of human IgG1 Fc left out]
notes: as for B3
B17: VHH 20-Fc fusion (SEQ ID NO: 161) (Fc fusion)
chain: QVQLVESGGGLVQPGGSLRLSCAASGFTFGSFGMSWVRQAPGKGPEWVSAIDGGGADTRYAESVKGRFTISRDNAKKTLYLQMNSLKPEDTAVYYCTIGGSTSRGSQGTQVTVSSGGGGS[letters of human IgG1 Fc left out]
notes: as for B3
B18: VHH 22-Fc fusion (SEQ ID NO: 163) (Fc fusion)
chain: QVQLVESGGGLVQAGGSLRLSCAASGFTFGSFGMSWVRQAPGKGPEWVSAIDSGGVDTRYAESVKGRFTISRDNAKKTLYLQMNSLKPEDTAVYYCTIGQSTSRGSQGTQVTVSSGGGGS[letters of human IgG1 Fc left out]
notes: as for B3

target: T1, Recombinant human serum albumin (human, UniProt P02768); assay: SPR, Fc-VHH captured on anti-human Fc, human albumin as analyte, pH 6.0
T1 construct: Analyte in SPR, 0-500 nM

B1: no binding (tested: 500 nM).

target: T2, Recombinant human serum albumin (human, UniProt P02768); assay: SPR Biacore 8K, VHH-Fc captured by anti-human Fc, albumin injected, pH 6.0, 25 C
T2 construct: Analyte in SPR

B2 was tested, and the Kd was 20.7 nM.

Binder B2 has a koff of 0.00351 s⁻¹.

Binder B2 has a kon of 169000 M⁻¹ s⁻¹.

target: T3, Recombinant cynomolgus serum albumin (cynomolgus, UniProt A2V9Z4 25-608); assay: as above
T3 construct: Analyte in SPR
T3 sequence (A2V9Z4 25-608 limits assumed): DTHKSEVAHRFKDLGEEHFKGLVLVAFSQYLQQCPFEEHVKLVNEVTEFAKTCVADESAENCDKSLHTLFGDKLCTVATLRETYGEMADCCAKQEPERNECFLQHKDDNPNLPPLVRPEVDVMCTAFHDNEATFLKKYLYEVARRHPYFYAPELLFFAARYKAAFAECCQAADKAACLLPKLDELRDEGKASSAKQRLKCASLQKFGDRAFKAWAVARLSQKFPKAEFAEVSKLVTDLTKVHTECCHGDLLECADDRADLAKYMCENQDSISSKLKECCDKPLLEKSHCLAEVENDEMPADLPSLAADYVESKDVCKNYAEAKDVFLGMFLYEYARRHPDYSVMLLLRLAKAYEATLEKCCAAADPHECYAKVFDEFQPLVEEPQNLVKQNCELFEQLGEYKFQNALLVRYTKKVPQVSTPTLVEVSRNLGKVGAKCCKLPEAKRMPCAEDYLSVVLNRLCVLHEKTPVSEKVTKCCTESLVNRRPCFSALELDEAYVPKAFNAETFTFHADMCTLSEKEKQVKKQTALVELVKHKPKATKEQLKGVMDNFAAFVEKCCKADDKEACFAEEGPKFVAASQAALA

B2 showed a Kd of 56.4 nM.

Binder B2 has a koff of 0.0102 s⁻¹.

Binder B2 has a kon of 180000 M⁻¹ s⁻¹.

target: T4, Recombinant mouse serum albumin (mouse, UniProt P07724 25-608); assay: SPR, Fc fusion captured on anti-human Fc, mouse albumin as analyte, pH 6.0
T4 construct: Analyte in SPR, 0-500 nM
T4 sequence (P07724 25-608 limits assumed): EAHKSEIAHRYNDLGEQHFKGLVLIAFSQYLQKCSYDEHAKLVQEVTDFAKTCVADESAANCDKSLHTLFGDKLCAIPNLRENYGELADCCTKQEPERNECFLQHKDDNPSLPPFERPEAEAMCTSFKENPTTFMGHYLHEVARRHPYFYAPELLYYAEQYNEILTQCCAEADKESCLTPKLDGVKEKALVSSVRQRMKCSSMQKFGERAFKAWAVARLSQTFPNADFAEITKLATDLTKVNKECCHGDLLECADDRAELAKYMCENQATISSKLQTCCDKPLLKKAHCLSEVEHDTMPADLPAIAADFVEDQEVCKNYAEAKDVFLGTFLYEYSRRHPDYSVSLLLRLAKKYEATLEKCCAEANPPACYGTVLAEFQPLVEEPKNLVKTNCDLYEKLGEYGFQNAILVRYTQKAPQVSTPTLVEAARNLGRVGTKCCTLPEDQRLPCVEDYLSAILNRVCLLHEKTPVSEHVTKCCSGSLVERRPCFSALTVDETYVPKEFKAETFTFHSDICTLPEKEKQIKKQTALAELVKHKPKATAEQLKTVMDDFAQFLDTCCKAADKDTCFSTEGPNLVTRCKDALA

Point of comparison: B7, Kd 453 nM. Against it:
- B3 — 48-fold lower, 9.44 nM
- B4 — 3.2-fold lower, 143 nM
- B5 — 43-fold lower, 10.6 nM
- B6 — 65-fold lower, 7.01 nM
- B8 — 2.5-fold lower, 184 nM
- B9 — 2.8-fold lower, 163 nM
- B10 — 69-fold lower, 6.52 nM
- B11 — 3-fold lower, 149 nM
- B12 — 1.7-fold lower, 265 nM
- B13 — 2.7-fold lower, 168 nM
- B14 — 2.8-fold lower, 160 nM
- B15 — 61-fold lower, 7.48 nM
- B16 — 3.3-fold lower, 138 nM
- B17 — 2.3-fold lower, 199 nM
- B18 — within 1.5-fold, 408 nM

Point of comparison: B9, koff 0.0241 s⁻¹. Against it:
- B3 — 24-fold lower, 0.00101 s⁻¹
- B4 — within 1.5-fold, 0.0187 s⁻¹
- B5 — 23-fold lower, 0.00107 s⁻¹
- B6 — 30-fold lower, 0.000799 s⁻¹
- B7 — 1.9-fold higher, 0.0448 s⁻¹
- B8 — within 1.5-fold, 0.0276 s⁻¹
- B10 — 30-fold lower, 0.000796 s⁻¹
- B11 — within 1.5-fold, 0.0162 s⁻¹
- B12 — within 1.5-fold, 0.0233 s⁻¹
- B13 — within 1.5-fold, 0.0276 s⁻¹
- B14 — within 1.5-fold, 0.0242 s⁻¹
- B15 — 27-fold lower, 0.000905 s⁻¹
- B16 — within 1.5-fold, 0.0186 s⁻¹
- B17 — within 1.5-fold, 0.0309 s⁻¹
- B18 — 1.6-fold higher, 0.0377 s⁻¹

Point of comparison: B14, kon 151000 M⁻¹ s⁻¹. Against it:
- B3 — within 1.5-fold, 107000 M⁻¹ s⁻¹
- B4 — within 1.5-fold, 131000 M⁻¹ s⁻¹
- B5 — within 1.5-fold, 101000 M⁻¹ s⁻¹
- B6 — within 1.5-fold, 114000 M⁻¹ s⁻¹
- B7 — 1.5-fold lower, 99000 M⁻¹ s⁻¹
- B8 — within 1.5-fold, 150000 M⁻¹ s⁻¹
- B9 — within 1.5-fold, 148000 M⁻¹ s⁻¹
- B10 — within 1.5-fold, 122000 M⁻¹ s⁻¹
- B11 — within 1.5-fold, 109000 M⁻¹ s⁻¹
- B12 — 1.7-fold lower, 87800 M⁻¹ s⁻¹
- B13 — within 1.5-fold, 164000 M⁻¹ s⁻¹
- B15 — within 1.5-fold, 121000 M⁻¹ s⁻¹
- B16 — within 1.5-fold, 135000 M⁻¹ s⁻¹
- B17 — within 1.5-fold, 155000 M⁻¹ s⁻¹
- B18 — 1.6-fold lower, 92500 M⁻¹ s⁻¹
